Toxic doses and inconclusive results are not listed. Not every entry of the source has a single result; some have several. They are shown here; other results are not. There may be further records. The records of an entry are repeated measurements across runs, samples, wells, individuals or studies.

The assay concerns L1210 leukemia ip in BDF1 mice, survival T/C. Description: NCI In Vivo Anticancer Drug Screen. Data for tumor model L1210 Leukemia (intraperitoneal) in B6D2F1 (BDF1) mice. Particulars: endpoint: mean survival time, higher = longer survival.

Consider `O=C(NP(=O)(N1CC1)N1CC1)c1cc(I)ccc1I`, for which the T/C (dose: 2.0 mg/kg/injection, schedule: Q01DX009 (ip), vehicle: saline) is 94 % of control and 151 % of control; the T/C (dose: 4.0 mg/kg/injection, schedule: Q01DX009 (ip), vehicle: saline) was 104 % of control and 165 % of control; the T/C (dose: 8.0 mg/kg/injection, schedule: Q01DX009 (ip), vehicle: saline) was 118 % of control and 162 % of control; the T/C (dose: 16.0 mg/kg/injection, schedule: Q01DX009 (ip), vehicle: saline) was 107 % of control and 176 % of control.

As to `COc1cc2c[n+](C)c3c4cc(OC)c(OC)cc4ccc3c2cc1OC`, the T/C is 88 % of control and 164 % of control (dose: 100.0 mg/kg/injection, schedule: Q01DX009 (ip), vehicle: water); 121 % of control and 151 % of control (dose: 200.0 mg/kg/injection, schedule: Q01DX009 (ip), vehicle: saline). In the case of `CC1c2ccccc2OC(=O)C1C(=O)O` (centres undefined), the T/C (dose: 200.0 mg/kg/injection, schedule: Q01DX001 (ip), vehicle: carboxymethylcellulose (CMC)) was 95 % of control and 152 % of control.

In the case of `COc1cc([N+](=O)[O-])c(Cl)cc1NS(=O)(=O)c1ccccc1`, the T/C (dose: 200.0 mg/kg/injection, schedule: Q04DX003 (ip), vehicle: saline with Tween-80) is given as 100 % of control, 101 % of control, 171 % of control.

Take `O=C(O)c1cc([N+](=O)[O-])cc([N+](=O)[O-])c1` (tested in a mixture with another compound): for the setting “dose: 12.5 mg/kg/injection, schedule: Q04DX002 (ip), vehicle: saline with Tween-80”, the T/C is 97 % of control and 169 % of control.

(Values after PubChem BioAssay AID248 (DTP/NCI, 2004).)
